Results taken from the supplement of paper PMC4166925.
± gives the standard deviation of the averaged measurements. In all, about 33,000 sequences were measured (“E-score (dimensionless, -0.5 to 0.5)”: median about -0.049, highest 2% from about 0.37 on). This is one part of the list.

Each sequence was assayed on T1, PmTbr T-box DNA-binding domain (GST fusion) (assay: PBM E-score of 8-mer (E-score (dimensionless, -0.5 to 0.5)); Tbr is Tbrain of the sea star Patiria miniata (Pm) or the sea urchin Strongylocentrotus purpuratus (Sp); higher = stronger binding preference; most listed sequences are background and not binding sites). Settings: the construct has about 5 more residues each side.
T1 sequence: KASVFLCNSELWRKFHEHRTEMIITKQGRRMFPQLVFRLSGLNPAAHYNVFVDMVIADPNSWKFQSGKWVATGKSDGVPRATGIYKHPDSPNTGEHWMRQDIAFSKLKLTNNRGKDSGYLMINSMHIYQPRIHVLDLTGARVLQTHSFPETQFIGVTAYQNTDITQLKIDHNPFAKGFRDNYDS
Experimental: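 Universal protein-binding microarray (Agilent AMADID 016060, 60-bp probes with a 35-bp variable region) incubated with 200 nM GST-fused Patiria miniata Tbr T-box DNA-binding domain (residues 272-466) in PBS pH 7.5. Scored for every ungapped 8-mer (given with its reverse complement) by the Universal PBM Analysis Suite as E-score (modified Wilcoxon-Mann-Whitney enrichment, range -0.5 to 0.5; >0.45 counts as bound) and Z-score of median probe intensity. Two replicate arrays (datasets 1 and 2).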
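Also: 200 nM protein in PBS on universal arrays averaged over duplicate arrays.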

Row | Sequence | PBM E-score of 8-mer
1 | ACCAGAAG | 0.0397 ± 0.019
2 | ACAGACTA | -0.198 ± 0.085
3 | TGGTTACA | 0.0316 ± 0.057
4 | ATACCTTC | 0.00168 ± 0.039
5 | CAGGCCGC | -0.0846 ± 0.021
6 | GTAAATTA | -0.134 ± 0.095
7 | ACCTTCAG | -0.0271 ± 0.043
8 | CCGGCTCA | -0.114 ± 0.029
9 | ATGCCGAG | -0.1 ± 0.035
10 | ATGGCTTC | -0.16 ± 0.012
11 | ACTGAGAC | -0.232 ± 0.0055
12 | ATTACGCC | -0.0352 ± 0.086
13 | AAATATCC | -0.0248 ± 0.021
14 | ACGCCGAC | 0.129 ± 0.014
15 | TCGGTTAA | -0.0369 ± 0.011
16 | CGGGTGGA | -0.0228 ± 0.025
17 | CTGCGAGC | 0.162 ± 0.013
18 | AACCGAAT | -0.22954 ± 3.5e-05
19 | ATCTGTCA | 0.311 ± 0.016
20 | CTCGATTC | -0.169 ± 0.0064
21 | GCAAGTAA | 0.129 ± 0.032
22 | GTGTGGCA | 0.258 ± 0.033

Row | Sequence | PBM E-score of 8-mer
23 | ATCTTCAG | -0.156 ± 0.054
24 | ATTTCCGG | -0.162 ± 0.04
25 | AAATTGGT | -0.0362 ± 0.063
26 | ACGTGGGC | -0.148 ± 0.094
27 | GCAGGCTA | -0.198 ± 0.049
28 | CTGCCGGA | -0.119 ± 0.0089
29 | CACCTTGG | 0.45511 ± 0.00014
30 | AGTCAAAA | -0.16 ± 0.093
31 | CTTCAGGA | -0.101 ± 0.0096
32 | CCAGCATA | -0.177 ± 0.012
33 | ACACTTCA | 0.441 ± 0.017
34 | CCTGATAG | -0.0127 ± 0.018
35 | ATCGGTCC | -0.13 ± 0.025
36 | AGAGCTCG | -0.265 ± 0.02
37 | GTCTCGGA | -0.302 ± 0.052
38 | AGGCTTGC | -0.134 ± 0.056
39 | TATGCACA | -0.0819 ± 0.016
40 | GGCGCGTA | 0.0636 ± 0.0022
41 | GATATTCC | -0.08 ± 0.018
42 | CCCCCCTA | -0.151 ± 0.0074
43 | CGCATATA | 0.0397 ± 0.072
44 | TCCTAGGA | -0.252 ± 0.078

Row | Sequence | PBM E-score of 8-mer
45 | ACTTTACC | 0.0103 ± 0.017
46 | TGGGATAA | 0.16 ± 0.078
47 | ATGATTCC | -0.137 ± 0.008
48 | GAGTCGAA | -0.0345 ± 0.049
49 | AGATCAGG | -0.207 ± 0.013
50 | GTTCTATA | -0.101 ± 0.12
51 | CTTGACCC | -0.326 ± 0.035
52 | CTTCATGC | -0.0971 ± 0.015
53 | AGCGTCAC | 0.306 ± 0.0054
54 | AATGACAT | -0.101 ± 0.054
55 | ACCTCAAG | 0.127 ± 0.013
56 | CATTGAAC | -0.0592 ± 0.0046
57 | TAAAGTAA | -0.0267 ± 0.046
58 | AAGAGCAA | -0.095 ± 0.034
59 | ACATCGGT | -0.0547 ± 0.052
60 | CGCTAAAA | 0.344 ± 0.033
61 | GTGCGCAC | 0.178 ± 0.021
62 | CCCATAGA | -0.183 ± 0.044
63 | ACCGCCAG | 0.0385 ± 0.076
64 | AAGTGACG | 0.4043 ± 0.003
65 | GAAAGTAA | 0.109 ± 0.11
66 | TCGTGACA | 0.358 ± 0.017

Row | Sequence | PBM E-score of 8-mer
67 | CCCCCGGG | -0.029 ± 0.0011
68 | AGCACGGG | -0.0965 ± 0.025
69 | CATACCTA | -0.215 ± 0.01
70 | CAATAGAG | -0.138 ± 0.09
71 | ACGTGCCG | 0.221 ± 0.02
72 | AGAAGGTC | -0.315 ± 0.034
73 | GGAGCAGA | -0.252 ± 0.0064
74 | ACCGAAGG | -0.121 ± 0.0021
75 | AGAAGTAT | -0.106 ± 0.017
76 | CGCGTAGA | -0.0748 ± 0.0063
77 | GAGGTGGA | 0.0566 ± 0.0027
78 | GCCGAGGA | -0.0743 ± 0.099
79 | TACTAAGA | -0.0479 ± 0.0069
80 | AAGACTGG | -0.0529 ± 0.0094
81 | CGACAGAG | 0.0367 ± 0.088
82 | CGAGTCCG | -0.181 ± 0.027
83 | TGGAGCCA | -0.0952 ± 0.037
84 | CCTCGTCG | 0.217 ± 0.074
85 | CAGGGGTC | -0.17 ± 0.021
86 | AGATAGGC | -0.231 ± 0.06
87 | AACTCGGC | -0.107 ± 0.014
88 | GGGTCCAC | 0.022 ± 0.011

Row | Sequence | PBM E-score of 8-mer
89 | ACTGCAGA | -0.167 ± 0.029
90 | CTGCGGAC | -0.0295 ± 0.018
91 | CTAGTTAA | -0.102 ± 0.053
92 | ACCACAGC | -0.156 ± 0.098
93 | CTGGAAAA | 0.0225 ± 0.034
94 | GCGAAAGC | 0.118 ± 0.025
95 | AGTACAGG | -0.0861 ± 0.022
96 | ATAATGTC | -0.151 ± 0.049
97 | AGCATTTG | -0.133 ± 0.041
98 | AAAGAAGG | -0.276 ± 0.03
99 | CCGTAACA | 0.1915 ± 0.0018
100 | CGGCTGGC | -0.0961 ± 0.12
101 | ATTTGTCA | 0.31 ± 0.0088
102 | ATGTAAGA | -0.219 ± 0.073
103 | ACACGACG | 0.0366 ± 0.042
104 | ACTTCCAA | -0.125 ± 0.081
105 | ATGCACAT | -0.138 ± 0.021
106 | ACCAGGGA | -0.0309 ± 0.029
107 | CCGGGGAG | -0.223 ± 0.045
108 | AATCAAGT | -0.121 ± 0.085
109 | AACTATGT | 0.0405 ± 0.073
